Results from the supplement of paper PMC12632987.
Whole data set: some 4,500 sequences, median “median log2 fold change of GCK-ALFA target abundance (FLAG IP / Myc IP barcode read proportion)” near 0.078, cut for the lowest 2% near -0.6. The list shows a part of the results.

B1: GBRAP_52_6339 (protein)
chain: SEERVRAVAEAIAAAVAAGRLDEAVALTREAAATLSREEVRRMLRLFAELAAERLPDRPDLVMEAAFRIADVVEETLGDEVLADDLEAYTAKLLVERQQA
B2: GBRAP_125_3119 (protein)
chain: HMERLLEDLRIVLRALGLDEEDIEEALELARRYGLKGTMIAVAKALGYDEIADLIEQLTEEQVAAAVAEVAEYIRAHPDLTPEEVKALLLEVLRKALEAQ
B3: GBRAP_52_6119 (protein)
chain: MKERAEKLVREAFELVKAGRLEEARALLREWAEKANEEEVEEFAEALAELAKEVAPEDADAVWRLAEMAAEALEEAGWPEELVDYLLAKTAAALYELEQK
B4: GBRAP_14_3848 (protein)
chain: MEALVKAVDETAADLKEFAADVLPEHADEINAEIDRLAKELKEKIKKEKLNKEEVAELAEEMAARLAAYLAAHGYASDTERAAFRAHLLSTFLLKLEEIE
B5: GBRAP_80_6754 (protein)
chain: ARAELEAALAELKALDPELGERLREVLERALAAGVPVATVTRLVRALVELAKLDLEKARELAEETIRRLEEELAAGDLEGATATLIDAESDALLEVEELE
B6: GBRAP_78_6610 (protein)
chain: EKKEKIEELLEKAIEKLREIRKKSPEVADLAAEAETLAGTALLQVDTKSESKEEIEETLEEAIKEAKELLKKLEDKDEELQKLAKEALELLEEALKLVKE
B7: GBRAP_160_4517 (protein)
chain: SESLEELEKLVDEAAEEVKESIDEESVEEAKVVAAVEYGEVIMEMVEDESFSDEAVDAAAEIGDELVEELKENENASKEELKKIVDEKAKELKEKLKELS
B8: GBRAP_78_6635 (protein)
chain: EVEELIDKALEKVSEAAKAALKLPLDLRAEVLDELSDAAVELVEAEEGEDKEEELEEALEELEEALEIVEENDSPLTEEIKKLLEEAIELVKKAIEELKE

target: GABARAP, O95166; test: median log2 fold change of GCK-ALFA target abundance (FLAG IP / Myc IP barcode read proportion) (log2 ratio); each designed protein is fused to an ALFA-tag nanobody in HEK293 cells to bring the named protein to FLAG-tagged glucokinase (GCK); Myc marks an untargeted standard; higher = target protein stabilised (more abundant); conditions: target protein: 3xFLAG-MCP-GCK-ALFA reporter; HEK293 landing pad (RPLP)
Procedure, shortened: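 Sequencing of reverse-transcribed, amplified circular RNA barcodes from anti-FLAG and anti-Myc immunoprecipitates provided the readout for an ALFA-nanobody-fused binder library recombined into HEK293 landing-pad cells. Those cells were induced with 2 μg mL^−1 doxycycline, transfected with a plasmid expressing a FLAG-tagged target and a Myc-tagged standard, and lysed after 48 h. Target abundance is the per-binder median log2 ratio of FLAG to Myc barcode read proportions. Only barcodes at a proportion of ≥10^−7 in both replicates and binders with ≥3 barcodes per replicate were kept, with a 10^−6 pseudocount added before the two replicates were pooled.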

Chain of GABARAP, O95166 (O95166 whole entry, the tested form may be a part): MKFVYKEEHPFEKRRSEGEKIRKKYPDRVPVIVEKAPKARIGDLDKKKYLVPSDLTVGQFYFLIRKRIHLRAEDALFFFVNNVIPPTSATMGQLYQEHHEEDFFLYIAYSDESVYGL

| Binder | median log2 fold change |
| --- | --- |
| B1 | -0.0824 |
| B2 | -0.224 |
| B3 | -0.201 |
| B4 | 0.135 |
| B5 | 0.0854 |
| B6 | 0.129 |
| B7 | 0.416 |
| B8 | -1.21 |
